PubChem BioAssay AID2451 (National Center for Advancing Translational Sciences (NCATS), 2010)
In all, about 290,000 compounds went through this assay and about 2,100 (0.72%) were called active. Inconclusive means that the source gave no clear call. Such entries were picked first, then a sample of the others. Calls come from the whole dose curve; as a rule, active = well fitted inhibition curve with a large enough effect; inconclusive = small, poorly fitted or top-dose-only effect, or effect the other way; inactive = flat fitted curve, though single readings scatter. Where the call is inconclusive, the potency comes from a doubtful curve fit.

molecular target: Fructose-bisphosphate aldolase (Giardia intestinalis (strain ATCC 50803 / WB clone C6)) (UniProt A8B2U2); assay: qHTS Assay for Inhibitors of Fructose-1,6-bisphosphate Aldolase from Giardia Lamblia; conditions: purified Giardia FBPA; series mostly up to 59.6 µM; note: nearly all actives have a fitted effect of over 55% in size
Summary of the method: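 40 nM FBPA preincubated 10 min at RT with compound (up to 57.5 uM final), then substrate plus GAPDH/TPI/NAD/arsenate coupling and diaphorase/resazurin added. Fluorescence read after 20 min at RT, 525/598 nm.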
Potency is the fitted concentration of half-maximal effect; tags give direction and shape of the fitted curve.

Chain of UniProt A8B2U2 (A8B2U2 whole entry, looked up): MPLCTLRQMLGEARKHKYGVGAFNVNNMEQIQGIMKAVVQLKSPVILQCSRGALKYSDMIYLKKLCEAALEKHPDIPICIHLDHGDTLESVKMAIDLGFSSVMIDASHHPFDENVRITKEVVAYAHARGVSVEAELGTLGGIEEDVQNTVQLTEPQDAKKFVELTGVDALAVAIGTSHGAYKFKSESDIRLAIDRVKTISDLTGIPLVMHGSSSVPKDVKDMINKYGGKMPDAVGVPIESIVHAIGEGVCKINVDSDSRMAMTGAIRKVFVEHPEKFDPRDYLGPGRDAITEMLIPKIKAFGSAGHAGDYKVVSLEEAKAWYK

Row | Structure (SMILES) | Potency
1 | Cn1c(CBr)c(C(=O)c2ccc([N+](=O)[O-])cc2)c(=O)n(C)c1=O | inconclusive: 22.3 µM [inhibitor, single point]
2 | Cc1ccc(Cn2nnnc2CN2CCC(n3nnc4ccccc43)CC2)cc1 | inconclusive: 17.7 µM [inhibitor, single point]
3 | O=C(O)CCC(=O)Nc1ccc(/C=C/C(=O)C2CC2)cc1 | inactive
4 | COc1ccc2ccccc2c1/C=N/Nc1ccc(Cl)c(C(=O)O)c1 | inconclusive: 7.94 µM [inhibitor, partial curve]
5 | CC(=O)N1CCC2(CC1)CN(c1ccccn1)C2 | inactive
6 | CCOP(=O)(OCC)c1nc(-c2ccc(OC)cc2)oc1N1CCOCC1 | inactive
7 | O=C(NC(=S)Nn1cnnc1)c1ccccc1Br | active: 11.2 µM
8 | CCOC(=O)N1CCN(CC(=O)Nc2ccc(C)c(Br)c2)CC1 | inconclusive: 22.3 µM [inhibitor, single point]
9 | FC(F)(F)c1ccccc1NC(=S)NN=C1CCCCCC1 | inconclusive: 5 µM [inhibitor, single point]
10 | COCCn1c(C)c(C)c2c(NCCc3ccccc3)ncnc21 | active: 28.2 µM
11 | Cc1ccccc1NC(=O)CCC(=O)N/N=C/c1cc([N+](=O)[O-])ccc1O | inconclusive: 1.77 µM [inhibitor, partial curve]
12 | Nc1c(NCCCN2CCOCC2)c2ccccc2oc1=O | inconclusive: 14.1 µM [inhibitor, partial curve]
13 | COc1ccc(OC)c(S(=O)(=O)n2ccnc2C(C)C)c1 | inconclusive: 28.2 µM [inhibitor, single point]
14 | Nc1ccc2nc(CCCCCCCCc3nc4ccc(N)cc4[nH]3)[nH]c2c1 | inconclusive: 19.9 µM [inhibitor, partial curve]
15 | CCc1ccc(NC(=O)C(=O)NCCN2CCN(Cc3ccc([N+](=O)[O-])cc3)CC2)cc1 | inactive
16 | Fc1cccc(CNC2CCN(CCc3ccccc3)CC2)c1 | inconclusive: 15.8 µM [inhibitor, partial curve]
17 | COc1ccc(S(=O)(=O)NNC(N)=S)cc1 | active: 9.98 µM
18 | Brc1c(OCCOCCn2cncn2)ccc2ccccc12 | inactive
19 | CNc1ccc(Br)cc(C(=O)/C=C/c2ccc(OC)cc2)c1=O | inconclusive: 3.15 µM [inhibitor, full curve]
20 | COc1cccc(C(=O)Nc2cccc3c2ccc2cccn23)c1 | inactive
21 | CCC(C)(C)n1nnnc1C(c1ccc(OC)c(OC)c1)N1CCN(C(=O)c2ccco2)CC1 (centres undefined) | inconclusive: 31.6 µM [inhibitor, single point]
22 | C=CCc1cc(OC)ccc1OCCN1CC(C)OC(C)C1 (centres undefined) | inconclusive: 14.1 µM [inhibitor, partial curve]
23 | O=C(N/N=C/c1c(O)n(CCc2ccccc2)c(=O)[nH]c1=O)c1ccccc1O | inconclusive: 17.7 µM [activator, single point]
24 | CC(C)=CCSc1nnc([C@@H](N)Cc2c[nH]c3ccccc23)o1 | inconclusive: 15.8 µM [inhibitor, partial curve]
25 | CCOC(=O)c1[nH]cnc1C(=O)O | active: 17.7 µM

Row | Structure (SMILES) | Potency
26 | COc1ccccc1CC(=N)N1C[C@@H]2C(=O)CCC(c3ccccc3)(c3ccccc3)[C@@H]2C1 | inactive
27 | CCCc1nc2ccccc2c(=O)n1/N=C/c1ccc(O)cc1O | inconclusive: 17.7 µM [inhibitor, partial curve, poor fit]
28 | Cn1nnnc1SCc1nc2ccccc2[nH]1 | inactive
29 | CCCCCCCCCCCCCCOS(=O)(=O)O | inconclusive: 17.7 µM [activator, partial curve]
30 | O=C(NC1(O)C(=O)c2ccccc2C1=O)c1ccc(C(F)(F)F)cc1 | inconclusive: 17.7 µM [inhibitor, partial curve]
31 | Cc1cc(NC(=O)c2oc3ccccc3c2C)ccc1-n1cnnn1 | inconclusive: 15.8 µM [inhibitor, partial curve]
32 | CCCC(=O)NC(c1ccc(C)cc1)c1ccc2cccnc2c1O (centres undefined) | inconclusive: 31.6 µM [activator, single point]
33 | COCCN(C(=O)CSc1nc2ccc(Cl)cc2[nH]1)c1c(N)n(Cc2ccccc2)c(=O)[nH]c1=O | inconclusive: 12.6 µM [inhibitor, partial curve]
34 | O=c1c(O)c(-c2ccc(O)c(O)c2)oc2cc(O)ccc12 | inconclusive: 25.1 µM [inhibitor, partial curve]
35 | Cc1cc(C(=O)NCc2ccccc2)no1 | inactive
36 | C/C=C/CC1(CC)C(=O)NC(=S)NC1=O | inconclusive: 22.4 µM [inhibitor, partial curve]
37 | CN1C(=O)c2c(sc3c2CCCC3)NC1c1ccccc1O (centres undefined) | inconclusive: 15.8 µM [inhibitor, single point]
38 | C=CCc1cc(OC)ccc1OCCCCn1cncn1 | active: 31.6 µM
39 | Cc1c(NC(=S)NNC(=O)CCC(=O)O)c(=O)n(-c2ccccc2)n1C | inactive
40 | CCN(C/C=C/c1ccccc1OC)Cc1ccccc1 | inconclusive: 31.6 µM [inhibitor, single point]
41 | Cc1cccc(NC(=O)CSc2nnc(-c3ccco3)c(-c3ccco3)n2)c1 | inconclusive: 17.7 µM [inhibitor, partial curve]
42 | CC(=O)c1ccc(NC(=O)C[n+]2cccc(C)c2)cc1 | inconclusive: 25.1 µM [inhibitor, partial curve]
43 | CN(c1ccccc1)S(=O)(=O)c1cccc(NS(=O)(=O)c2ccc(/C=C/C(=O)O)cc2)c1 | inconclusive: 19.9 µM [activator, partial curve]
44 | Cc1cccc(-n2c(-c3ccco3)n[nH]c2=S)c1 | inactive
45 | COc1ccc(NC(=O)c2c(-c3ccccc3Cl)noc2C)c(OC)c1 | inactive
46 | CC(=O)N1CCN(CCN=Cc2c(O)n(-c3ccc(C)cc3)c(=S)[nH]c2=O)CC1 | inconclusive: 11.2 µM [inhibitor, partial curve]
47 | Cc1cc(C)nc(NS(=O)(=O)c2ccc(NC(=O)c3cc4c(=O)n5cccc(C)c5nc4n3C)cc2)n1 | inconclusive: 22.4 µM [inhibitor, partial curve]
48 | Cc1ccc(/C=N/NC(=S)NC(C)C)o1 | inactive
49 | CN(CCCCCCN(C)Cc1ccccc1O)Cc1ccccc1O | active: 28.2 µM
50 | Cc1cnc(C(=O)Nc2cc(F)ccc2C)cn1 | inactive

Row | Structure (SMILES) | Potency
51 | CC(=O)c1cccc2c(O)c(C3=Nc4ccccc4C3=O)[nH]c12 | inconclusive: 3.97 µM [inhibitor, partial curve]
52 | Cc1ccc(NC2=C(NC(=O)c3ccccc3)C(=O)c3ccccc3C2=O)cc1Cl | inconclusive: 3.97 µM [inhibitor, partial curve]
53 | COCCNC(=S)NNC(=O)c1cc(-c2cccnc2)nc2ccccc12 | inconclusive: 44.7 µM [inhibitor, single point]
54 | CN(C)c1ccc(N/C=C/C(=O)c2ccco2)cc1 | inconclusive: 17.7 µM [inhibitor, partial curve]
55 | O=C(c1ccco1)N1CCC(N2CCN(c3ccccc3)CC2)CC1 | inconclusive: 17.7 µM [inhibitor, partial curve]
56 | Cc1ccc(/C=N/Nc2nc(C(C)(C)C)cs2)o1 | inconclusive: 17.7 µM [inhibitor, single point]
57 | c1ccc2c(c1)oc1c(NCCCN3CCOCC3)ncnc12 | inactive
58 | COc1ccc(Cl)cc1NC(=O)CSc1nc(-c2ccccc2)cc(=O)[nH]1 | inconclusive: 28.2 µM [inhibitor, single point]
59 | Cc1ccc(OCc2nnc(SCCN3CCOCC3)n2C)cc1 | inconclusive: 17.7 µM [inhibitor, partial curve]
60 | C[C@@H](NC(=O)c1nc[nH]c1C(=O)NCC(=O)OC(C)(C)C)c1ccccc1 | inconclusive: 25.1 µM [inhibitor, single point]
61 | OCCN(Cc1ccccc1)Cc1cccc(C(F)(F)F)c1 | inconclusive: 15.8 µM [inhibitor, partial curve]
62 | C/C=C/c1ccc(OCCCCNCc2ccco2)c(OC)c1 | inconclusive: 11.2 µM [inhibitor, partial curve]
63 | Cc1ccc(NC(=O)CNC(=O)N2CC(=O)Nc3ccccc32)cc1F | inactive
64 | Cc1ccc(S(=O)(=O)c2cc3ccccc3oc2=Nc2ccc3c(c2)OCCO3)cc1 | inactive
65 | Cc1ccc(S(=O)(=O)N=Nc2c(O)[nH]c3ccccc23)cc1 | inconclusive: 17.7 µM [activator, single point]
66 | c1ccc(-c2csc3ncnc(NCc4ccccn4)c23)cc1 | inconclusive: 15.8 µM [inhibitor, partial curve]
67 | O=c1[nH]c2ccccc2c(O)c1SCCO | inconclusive: 6.29 µM [inhibitor, single point]
68 | COc1ccccc1NC1=C(N2CCCCC2)C(=O)c2ccccc2C1=O | inconclusive: 0.354 µM [inhibitor, full curve]
69 | COc1ccc(C)cc1N(C(=O)c1cccc(F)c1)c1nc2ccccc2s1 | inactive
70 | CCCCc1nnc(NC(=O)CSCc2cc(=O)n3cc(C)sc3n2)s1 | active: 3.98 µM
71 | COc1ccc(Nc2cc(C)c3c(O)cccc3n2)cc1 | inconclusive: 19.9 µM [inhibitor, partial curve]
72 | COc1ccc(CNCc2ccc3c(c2)OCO3)cc1Br | inconclusive: 14.1 µM [inhibitor, partial curve]
73 | O=C(Nc1nnc(Cc2ccc(F)cc2)s1)Nc1ccccc1F | inactive
74 | COCc1cc(CN2CCN(C)CC2)c(O)c2ncccc12 | inconclusive: 3.15 µM [inhibitor, full curve, poor fit]
